Over roughly 33,000 sequences, “E-score (-0.5 to 0.5)” has its median near -0.043; the highest 2% begin near 0.37. Some of the results follow.
The sequences below were run against T1, Upc2 (UniProt Q12151) (assay: PBM E-score (8-mer binding enrichment) (E-score (-0.5 to 0.5)); higher = stronger / more preferred TF binding; most listed sequences are background and not binding sites). Conditions: protein concentration: 200 nM; construct: GST-full length.
T1 sequence: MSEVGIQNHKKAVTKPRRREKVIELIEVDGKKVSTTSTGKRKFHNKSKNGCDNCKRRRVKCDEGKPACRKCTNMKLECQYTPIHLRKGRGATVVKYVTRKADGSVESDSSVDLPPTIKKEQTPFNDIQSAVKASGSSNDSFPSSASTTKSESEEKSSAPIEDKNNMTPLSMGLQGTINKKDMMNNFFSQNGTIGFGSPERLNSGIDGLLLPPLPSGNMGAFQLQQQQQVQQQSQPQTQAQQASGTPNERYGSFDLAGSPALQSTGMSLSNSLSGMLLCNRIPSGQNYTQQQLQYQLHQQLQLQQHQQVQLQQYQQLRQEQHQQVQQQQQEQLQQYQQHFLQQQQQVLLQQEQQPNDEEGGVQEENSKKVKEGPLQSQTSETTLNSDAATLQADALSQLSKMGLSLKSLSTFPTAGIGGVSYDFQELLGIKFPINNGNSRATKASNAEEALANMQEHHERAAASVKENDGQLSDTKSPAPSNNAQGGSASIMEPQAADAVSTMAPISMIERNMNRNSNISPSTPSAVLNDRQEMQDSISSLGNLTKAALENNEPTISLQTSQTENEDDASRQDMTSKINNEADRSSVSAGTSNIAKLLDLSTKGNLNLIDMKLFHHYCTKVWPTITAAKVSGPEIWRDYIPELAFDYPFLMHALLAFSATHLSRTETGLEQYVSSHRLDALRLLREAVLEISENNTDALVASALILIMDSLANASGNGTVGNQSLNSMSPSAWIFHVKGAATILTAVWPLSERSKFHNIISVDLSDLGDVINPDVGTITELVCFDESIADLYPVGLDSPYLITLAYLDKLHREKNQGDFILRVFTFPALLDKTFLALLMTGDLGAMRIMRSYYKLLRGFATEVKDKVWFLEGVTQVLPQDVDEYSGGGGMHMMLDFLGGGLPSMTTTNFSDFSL
Method: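 Universal 'all 10-mer' protein binding microarrays (Agilent AMADID 015681) probed with GST-tagged S. cerevisiae TFs (full-length or DBD) made by in vitro transcription/translation (PURExpress), about 100-200 nM. Bound TF was detected with fluorescent anti-GST. Each ungapped 8-mer (which stands for itself and its reverse complement) is scored by the PBM enrichment score (E-score), a modified Wilcoxon-Mann-Whitney statistic from -0.5 to +0.5, computed with the Universal PBM Analysis Suite. Scale: above 0.35 generally sequence-specific binding.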

| Sequence | PBM E-score |
| --- | --- |
| CACCCGCC | 0.0703 |
| CGGGAAGC | -0.14 |
| GGAACTAC | -0.137 |
| GAAAAACA | -0.0431 |
| CCCTGGCA | -0.223 |
| TAGGAGGA | -0.211 |
| ACCTCAAA | 0.0106 |
| ACTTACGA | 0.382 |
| AGGGTGGA | -0.183 |
| ATAGTATG | 0.0124 |
| ATAACCTC | -0.0875 |
| CAGTGTAG | -0.0938 |
| CCAAGTAA | 0.16 |
| GTGCCCAC | -0.104 |
| CTTTTAGA | 0.114 |
| GACGAGTA | 0.104 |
| AGAGTTAT | -0.0578 |
| GACACAGC | -0.146 |
| CCCCCGCC | -0.299 |
| CTTACGGC | 0.185 |
| AAACCGGA | -0.113 |
| CCGTCCTC | -0.0575 |
| AACCTTTA | -0.0707 |
| GCTTTGCA | -0.159 |
| CTGGCGCA | -0.234 |

| Sequence | PBM E-score |
| --- | --- |
| AACACCCC | -0.187 |
| CGATGTCA | 0.0214 |
| AACGCTAG | -0.089 |
| CCATCATC | -0.00835 |
| ACGTCTCT | 0.073 |
| AGAACGAG | 0.42 |
| TCCAGGCA | 0.0278 |
| AAGACACA | -0.109 |
| GTCCCGAA | -0.116 |
| AAATATCT | -0.0249 |
| CAGCATGA | -0.387 |
| ACCGGGTA | 0.181 |
| ATATATAT | -0.158 |
| GCTCACAA | -0.0537 |
| ATATCAAC | -0.165 |
| CGTCCAAC | -0.065 |
| CTAGGCTC | -0.0923 |
| ACCGCGTG | -0.1 |
| CTGTGTCC | -0.0675 |
| CTTTTCTC | -0.11 |
| ACTCTAGC | -0.12 |
| GAGCACGC | 0.00268 |
| AAAGTCGA | -0.0915 |
| AACACGCT | -0.149 |
| AATCATAC | 0.263 |

| Sequence | PBM E-score |
| --- | --- |
| ACCGTCTA | -0.103 |
| CCTATTCG | 0.204 |
| CTCTGATA | -0.142 |
| CGCGCAGC | -0.0842 |
| ACTCGGTA | 0.109 |
| AAGATCAG | -0.0402 |
| TAGCCCTA | -0.163 |
| AGTGATTA | 0.0783 |
| AATCTGAC | -0.119 |
| CCCTCCGA | -0.161 |
| GGCTCTCA | -0.202 |
| CATACTTA | -0.00914 |
| CAAGTCTA | 0.00161 |
| TAGGGCGA | -0.129 |
| TAATGAGA | -0.102 |
| CCTGGTCC | -0.198 |
| ATCCCCAA | -0.222 |
| CGACTATC | 0.0595 |
| ATAGAAAT | 0.0412 |
| GAGCCTCA | -0.127 |
| GGTTGCAC | -0.0809 |
| GCCGGAAA | 0.0179 |
| TAGTCACA | -0.101 |
| CTAAGGAG | -0.115 |
| CCCGTATC | 0.339 |

| Sequence | PBM E-score |
| --- | --- |
| CCCCCGAA | -0.129 |
| CATCCTAC | -0.0778 |
| AGCCACTG | 0.0789 |
| GAATCTAA | 0.111 |
| AGCTGGCC | -0.126 |
| GATAGGGC | -0.366 |
| GCGATTTA | 0.0803 |
| AAAGGAAT | -0.0898 |
| CACGGCGC | -0.188 |
| GAATTAAC | 0.154 |
| CAGTAGAC | -0.126 |
| GGTGGTTA | -0.0349 |
| CTGGTTGC | -0.0566 |
| AACACAGA | -0.00201 |
| AAAATTGG | -0.0899 |
| GGGCTCGA | -0.0448 |
| CCGTTGTC | 0.189 |
| ACGGCTAT | -0.0248 |
| GGTAAAAA | -0.0161 |
| GCTAAAGA | 0.0895 |
| TCTGATAA | -0.188 |
| TATCCAAA | 0.178 |
| AAGGACAC | -0.0987 |
| ACTGTCGC | -0.0465 |
| CACGCGGC | -0.19 |

| Sequence | PBM E-score |
| --- | --- |
| CAATACTC | 0.0235 |
| ATGAGCTC | -0.125 |
| CGATGGGC | 0.0724 |
| CTCTGTTC | -0.218 |
| CTAGAAAA | -0.0104 |
| GGATAATA | -0.0041 |
| AAAGATTC | 0.0374 |
| AAGGTGAC | -0.26 |
| GTCGCAAC | 0.119 |
| CTAACATA | 0.0276 |
| CACAAAGA | -0.104 |
| GGCTTCGA | -0.0382 |
| ACGTAGAT | 0.113 |
| GATTCCAC | -0.0954 |
| AGGACCAC | -0.158 |
| GTCCTTTA | -0.138 |
| GGCGGGAC | -0.0696 |
| ACCTCGTC | 0.0626 |
| CGCGCCAG | -0.0872 |
| GTGCCTCA | -0.316 |
| GGTGGAAA | -0.128 |
| GCGCGTGA | 0.076 |
| AAAACCAC | -0.0422 |
| GGGTACAC | -0.0159 |
| CTCCATAC | 0.151 |

| Sequence | PBM E-score |
| --- | --- |
| ACACTAGG | -0.152 |
| GACGCTTA | 0.124 |
| GGCACGGA | -0.208 |
| CCTCTCTA | -0.35 |
| CTCTTGTA | -0.114 |
| GCTCCAGC | 0.0527 |
| AGTCGTAA | 0.379 |
| GCCACGGC | -0.0747 |
| GGGAGCAA | -0.11 |
| GAAGCTCC | -0.0734 |
| CCCAAGCA | -0.206 |
| CATACAGC | -0.184 |
| GGGGTGCA | -0.117 |
| CGACTGCG | 0.00321 |
| ACCATATA | 0.27 |
| CGGATAAG | 0.122 |
| CGTGGCCC | -0.137 |
| AATCTCGA | 0.0517 |
| AAGAGCGA | 0.138 |
| GCAATCCA | -0.151 |
| GAAACTCA | 0.0109 |
| GTCATGAC | 0.0371 |
| ACCAAATG | -0.135 |
| ACCCTAGT | -0.279 |
| CGAAACAA | 0.188 |

| Sequence | PBM E-score |
| --- | --- |
| CGGGAGTA | -0.028 |
| GCAACAGC | -0.191 |
| GGGCCCAC | 0.125 |
| ACCGCTCA | 0.0434 |
| ATTTCGAC | -0.0393 |
| AATTTGAT | -0.0842 |
| CGTCGCTC | 0.256 |
| TTCAGCAA | -0.0506 |
| ACAACCGC | 0.127 |
| TATCGGCA | -0.11 |
| CCCCAATC | -0.371 |
| ACTCGGAA | 0.0882 |
| ATGTGATG | -0.159 |
| TCACCGGA | -0.142 |
| GGAGAAAC | 0.0297 |
| CGCGGCGC | -0.135 |
| ACATAGAT | -0.164 |
| CAAGAGAC | -0.194 |
| ATCGCTGA | 0.205 |
| CCCCACAC | -0.161 |
| CCCCTTTC | -0.0709 |
| TAGCTACA | 0.00914 |
